Screen size: about 390,000 compounds; about 17,000 (4.4%) were called active. The shares of active, inactive and inconclusive entries below differ from those in the screen. Calls follow the shape of the dose curve; as a rule, active = well fitted inhibition curve with a large enough effect; inconclusive = small, poorly fitted or top-dose-only effect; inactive = no such curve, though single readings can be large or run the other way. Potencies beside an inconclusive call are fits to weak or partial responses and may not hold up. Some compounds were tested as several samples or in several runs, with calls that do not always agree.
Biological target: Lysine-specific demethylase 4A (Homo sapiens) (UniProt O75164)
UniProt O75164, sequence (O75164 whole entry, looked up, the tested form may be a part): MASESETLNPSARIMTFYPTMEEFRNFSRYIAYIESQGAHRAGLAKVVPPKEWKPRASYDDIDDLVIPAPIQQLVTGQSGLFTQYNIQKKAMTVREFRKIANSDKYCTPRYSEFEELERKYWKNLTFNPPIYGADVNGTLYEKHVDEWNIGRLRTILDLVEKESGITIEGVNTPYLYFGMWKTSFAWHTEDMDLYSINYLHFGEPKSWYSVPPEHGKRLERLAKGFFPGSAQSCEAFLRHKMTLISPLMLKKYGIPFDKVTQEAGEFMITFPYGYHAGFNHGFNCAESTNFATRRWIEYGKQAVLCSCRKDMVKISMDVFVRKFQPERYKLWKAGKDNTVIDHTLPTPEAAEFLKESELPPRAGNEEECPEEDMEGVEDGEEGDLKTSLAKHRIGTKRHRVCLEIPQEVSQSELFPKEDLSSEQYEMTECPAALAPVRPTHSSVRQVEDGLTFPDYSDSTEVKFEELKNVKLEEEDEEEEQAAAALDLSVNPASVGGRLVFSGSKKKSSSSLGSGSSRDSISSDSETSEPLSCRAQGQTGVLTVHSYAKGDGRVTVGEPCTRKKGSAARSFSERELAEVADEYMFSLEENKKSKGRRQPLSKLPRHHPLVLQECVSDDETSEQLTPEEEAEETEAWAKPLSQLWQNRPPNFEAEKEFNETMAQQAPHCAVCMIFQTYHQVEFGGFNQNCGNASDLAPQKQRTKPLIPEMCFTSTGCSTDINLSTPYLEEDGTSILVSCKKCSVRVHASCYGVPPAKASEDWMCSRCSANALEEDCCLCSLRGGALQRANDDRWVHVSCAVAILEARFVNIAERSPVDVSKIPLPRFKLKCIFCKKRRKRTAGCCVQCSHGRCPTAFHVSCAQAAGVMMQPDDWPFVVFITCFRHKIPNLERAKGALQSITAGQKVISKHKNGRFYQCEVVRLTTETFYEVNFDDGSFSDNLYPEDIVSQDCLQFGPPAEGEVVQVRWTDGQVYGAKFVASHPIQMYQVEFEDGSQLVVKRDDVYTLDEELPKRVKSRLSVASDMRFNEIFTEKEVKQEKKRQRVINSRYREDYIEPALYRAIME
Test: qHTS Assay for Inhibitors of JMJD2A-Tudor Domain; also: nearly all actives have a fitted effect of over 50% in size
Settings: AlphaScreen JMJD2A-Tudor / H3K4me3 peptide binding; activity change, negative = inhibition: at 114 µM (top of the series)
% is scaled to controls: 0 for no effect and ±100 for the full control effect; potency is read from the fitted curve at half-maximal effect; tags tell the direction and shape of the fitted curve.

Potency, active:
Cc1oc(-c2ccc(F)cc2)cc1-c1nn2c(-c3ccoc3C)nnc2s1 89.1 µM
Cc1ccc(NC2CCCN(C(=O)c3cn(C)c4ccccc34)C2)cc1C (stereo not drawn) 25.1 µM
O=C(CSc1nnc(SCc2cccc3ccccc23)s1)Nc1ccc(C(=O)O)cc1 12.6 µM
O=C(N/N=C/c1ccccc1Cl)c1nc2ccc([N+](=O)[O-])cc2c(=O)[nH]1 25.1 µM
O=C(c1coc(=O)c(Br)c1)N1CCCc2ccccc21 39.8 µM
COCCn1nnnc1C(c1ccc(Cl)cc1)N1CCN(C(=O)c2ccco2)CC1 (stereo not drawn) 44.7 µM
O=C1c2cccc(NCCCNCCO)c2C(=O)c2cccc(NCCCNCCO)c21 50.1 µM
CCn1c2ccccc2c2cc(CN3CCN(S(=O)(=O)Cc4ccccc4)CC3)ccc21 1 µM
COc1ccc(S(=O)(=O)NNC(N)=S)cc1 8.91 µM
CCN(c1ccc(OC)cc1)S(=O)(=O)c1nnc(NC(=O)COc2ccc(F)cc2)s1 35.5 µM
COCCn1c(C)c(C)c2c(NCCc3ccccc3)ncnc21 17.8 µM
O=C(/C=C/c1ccccc1)CCN1CCOCC1 89.1 µM
Nc1ccc2nc(CCCCCCCCc3nc4ccc(N)cc4[nH]3)[nH]c2c1 50.1 µM
CC/C(O)=C(\C#N)c1nnc2n1CCCCC2 3.55 µM
S=c1[nH]nc(-c2ccco2)n1/N=C/c1ccc(Cl)cc1Cl 39.8 µM

Potency, inconclusive:
CCn1c(SCC(=O)Nc2nc3c(s2)CCCC3)nnc1-c1ccccc1 89.1 µM [inhibitor, partial curve]
COc1cc(-c2nc3cc(C)ccn3c2NC2CCCCC2)ccc1-c1ccc(C(C)=O)cc1 79.4 µM [inhibitor, partial curve]
O=C1NC(=O)/C(=C\c2ccc(Cl)nc2)S1 15.8 µM [inhibitor, full curve]
COc1ccc(OC)c(CCNC(=O)c2ccccc2NC(=O)C2=C(C)OCCS2)c1 56.2 µM [inhibitor, partial curve]
COC(=O)C(Cc1cnc(Cl)s1)(C(=O)OC)c1ccc([N+](=O)[O-])cc1[N+](=O)[O-] 56.2 µM [inhibitor, partial curve]
COc1cccc(N=C2CC(C)(C)CC(=O)/C2=C(/O)c2ccccc2)c1 12.6 µM [inhibitor, partial curve]
O=C1c2ccc(Oc3cccc([N+](=O)[O-])c3)cc2C(=O)N1c1ccccn1 15.8 µM [inhibitor, full curve]
CCOc1ccc(CN2CCN(c3ncnc4scc(-c5ccccc5)c34)CC2)cc1 39.8 µM [inhibitor, partial curve]
COc1ccc(S(=O)(=O)N(C)C[C@H]2Oc3c(NC(=O)Nc4ccc(C(F)(F)F)cc4)cccc3C(=O)N([C@H](C)CO)C[C@@H]2C)cc1 20 µM [inhibitor, full curve, poor fit]
N#Cc1nc(COc2ccccc2)oc1N1CCCC1 17.8 µM [inhibitor, partial curve]
CN1C(=O)c2ccccc2Sc2ccc(NC(=O)Cc3c(F)cccc3Cl)cc21 79.4 µM [inhibitor, partial curve]
CCO[C@@H]1OC(C(=O)N2CCN(Cc3ccc4c(c3)OCO4)CC2)=C[C@H](c2csc3ccccc23)[C@H]1CCCO 31.6 µM [inhibitor, partial curve]
Cc1ccc(Nc2nc(N)c([N+](=O)[O-])c(N3CCOCC3)n2)cc1C 17.8 µM [inhibitor, full curve]
CCCOc1cccc(CN2CCCCC2c2cccnc2)c1 (stereo not drawn) 100 µM [inhibitor, single point]
CC(C)(C)C(=O)NC(NC(=S)Nc1sc2c(c1C#N)CCCC2)C(Cl)(Cl)Cl (stereo not drawn) 56.2 µM [inhibitor, partial curve]
Cc1ccc2nc(C(=O)N3CCc4c([nH]c5ccccc45)C3c3ccccn3)cn2c1 (stereo not drawn) 50.1 µM [inhibitor, partial curve]
CC[C@]12c3[nH]c4ccccc4c3CCN1C(=O)C(CC(=O)NC/C=C(\C)CCC=C(C)C)C[C@@H]2C(=O)N1CCN(C(=O)C2CC2)CC1 (stereo partly drawn) 89.1 µM [inhibitor, partial curve]
CC(C)COC(=O)C(C#N)c1nc2ccccc2nc1N1CCN(Cc2ccc3c(c2)OCO3)CC1 (stereo not drawn) 79.4 µM [inhibitor, single point]
O=C(Nc1ccc(N2CCCC2)cc1)c1cc(Br)ccc1Cl 50.1 µM [inhibitor, partial curve, poor fit]
O=[N+]([O-])c1ccc(N=Nc2c(O)[nH]c3ccc(F)cc23)cc1 2.24 µM [inhibitor, partial curve]
CC(C)(C)c1ccc(C(=O)NC(=S)Nc2sc3c(c2C#N)CCC3)cc1 70.8 µM [inhibitor, single point]
Cc1ccc(N2CCn3c2nc2c3c(=O)n(CCCc3ccccc3)c(=O)n2C)cc1 56.2 µM [inhibitor, partial curve]
COC(=O)C1=CN(c2cccc(C(F)(F)F)c2)C=C(C(=O)OC)C1c1ccc(O)c(OC)c1 50.1 µM [inhibitor, partial curve]
Cc1ccc(-c2csc(NC(=O)c3ccc(-c4ccccc4)cc3)n2)o1 79.4 µM [inhibitor, single point]
CCOc1ccccc1OCc1nn2c(COc3ccccc3)nnc2s1 44.7 µM [inhibitor, partial curve]
Cc1c(O)c(CN2CCCC2)cc2c1oc(=O)c1ccccc12 12.6 µM [inhibitor, partial curve, poor fit]
COc1ccc(Cl)cc1NC(=O)CN(C)C(=O)c1cc2ccccc2cc1OC 0.708 µM [inhibitor, full curve, poor fit]
COc1ccc(S(=O)(=O)NCc2ccccn2)cc1NC(=O)c1ccccc1F 70.8 µM [inhibitor, single point]
Cc1ccc2nc(NC(=O)CSc3nc(=O)n(CCCN(C)C)c4c3CCC4)sc2c1 39.8 µM [inhibitor, partial curve]
CCOC(=O)c1c(S(=O)(=O)NCC(=O)Nc2ccc(Cl)c(C(F)(F)F)c2)c(C)n(C)c1C 79.4 µM [inhibitor, single point]

Activity change, negative = inhibition, inconclusive:
CCCN(C(=O)c1cc(-c2ccco2)nc2ccccc12)c1c(N)n(Cc2ccccc2)c(=O)[nH]c1=O -48.3% [inhibitor]

Activity change, negative = inhibition, inactive:
Cc1nc(C)n(C)c(=O)c1-c1ccccc1 -4.07%
CC(=O)c1ccccc1NS(=O)(=O)c1cc2c(cc1C)NC(=O)CO2 0.974%
O=C(NCc1ccccc1Cl)c1cccn1-c1nnc(N2CCCCC2)s1 -28.2%
Cc1ccccc1N(C)C(=O)c1noc2c1COc1ccccc1-2 -10.6%
O=C1NC(=O)/C(=C\c2ccc(Cl)cc2Cl)N1 -15.3%
Cc1nc2sc(C(c3ccc(F)cc3)N3CCOCC3)c(O)n2n1 (stereo not drawn) -1.89%
COC(=O)c1cc2oc3ccccc3c2n1CC(=O)Nc1cc(OC)cc(OC)c1 -10.5%
CC(C)(C)OC(=O)N[C@@H](Cc1ccccc1)C(=O)N[C@@H](CO)[C@H](O)[C@@H]1C[C@@H]1C(=O)NC1CCCCC1 -3.52%
O=C(NCc1ccc(F)cc1)C(c1ccccc1)c1ccccc1 3.61%
Cc1c(NC(=O)c2ccc3c4c(cccc24)CC3)c(=O)n(-c2ccccc2)n1C -34.9%
O=c1c2cn[nH]c2nc(SCc2cc(=O)n3cc(Br)ccc3n2)n1-c1ccc(Br)cc1 -30.1%
Cc1ccc(CN2CCCn3nc(C(=O)NCc4ccccc4Cl)cc3C2=O)cc1 -22.8%
CCCCN(CC)C(=O)CCn1c(=O)c2cccn2c2cccnc21 -8.42%
COC(=O)c1ccc(CNC(=O)Cn2cnc(C(=O)Nc3ccc(C)c(C)c3)n2)cc1 -8.22%
COc1ccc(NC(=S)NCC2CCCO2)c(C)c1 (stereo not drawn) -10.3%
CC(=O)Nc1cccc(-c2cnc(N)c(C(=O)c3cccnc3)n2)c1 -20.9%
CCOc1cc(/C=N\NC(=O)c2ccc(NC(=O)C(C)(C)C)cc2)ccc1OC(=O)c1cccc(C)c1 -4.29%
